According to PubChem BioAssay AID651820 (National Center for Advancing Translational Sciences (NCATS), 2012):
Among all 340,000 compounds or so, about 12,000 (3.5%) were called active. The shares of active, inactive and inconclusive entries below differ from those in the screen. Calls follow the shape of the dose curve; as a rule, active = well fitted inhibition curve with a large enough effect; inconclusive = small, poorly fitted or top-dose-only effect, or another doubt; inactive = no such curve, though single readings can be large or run the other way. Potencies of inconclusive entries are left out as doubtful fits.

assay: qHTS Assay for Inhibitors of Hepatitis C Virus (HCV); details: Huh7.5.1 HCVcc-Cre (HCVcc is cell-culture hepatitis C virus) infection, luciferase reporter, 44 h; activity change, negative = inhibition: at 41.8 µM (top of the series) unless noted
Method in brief: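 1,000 cells/well; 4 h culture; + compound; + HCVcc-Cre (~0.5 moi); 44 h; luciferase substrate, RT 15 min; read 15 sec.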
% is scaled to controls: 0 for no effect and ±100 for the full control effect; potency is read from the fitted curve at half-maximal effect; tags tell the direction and shape of the fitted curve.

SMILES	Potency	activity change, negative = inhibition
NC(=O)c1nnsc1Sc1c(C(N)=O)nnn1-c1cccc(N)c1	inconclusive [inhibitor, partial curve]	–
CCOC(=O)c1cnc(-n2nc(C)cc2C)nc1N1CCOCC1	inactive	–
Cc1cccc(OCC(=O)Nc2ccc3c(c2)OCO3)c1C	inconclusive [inhibitor, single point]	–
O=C(CN1CCN(C/C=C/c2ccccc2)CC1)Nc1ccc(F)cc1F	inconclusive [inhibitor, partial curve]	–
O=C(Nc1ccc(Cl)c(S(=O)(=O)N2CCOCC2)c1)c1ccc2c(c1)OCCO2	active: 10 µM	–
O=C(O)CN1C(=O)NC2(CCc3ccccc32)C1=O (configuration not stated)	inactive	–
Cc1nnsc1-c1nc2ccccc2[nH]1	inactive	–
CCc1ccc(C(=O)Cn2ncc(Cl)c(Cl)c2=O)cc1	inconclusive [inhibitor, single point]	–
CCCCOc1ccc(C(=O)NCC2(c3ccc(OC)cc3)CCOCC2)cc1	inactive	–
CCN(c1ccccc1)S(=O)(=O)c1ccc(Cl)c(NC(=O)CNCc2ccccc2OC)c1	active: 11.2 µM	–
C=CCn1c(SCc2cc(=O)n3ccsc3n2)nc2scc(C3CC3)c2c1=O	inconclusive [inhibitor, single point]	–
CSc1ccc(CN(C)CC(=O)Nc2ccccc2C(=O)NC2CC2)cc1	inconclusive [inhibitor, partial curve]	–
Cc1cc(C(=O)Nc2cccc(S(=O)(=O)N3CCCCC3)c2)c2ccccc2n1	inconclusive [inhibitor, full curve]	–
O=C(c1ccccc1)c1ccc2nc(-c3ccc(NC(=O)c4ccccc4F)cc3)[nH]c2c1	inconclusive [inhibitor, full curve]	–
Cc1c(C(=O)NCCCN2CCOCC2)sc2nc(-c3ccccc3)cn12	inconclusive [inhibitor, single point]	–
NC(=O)C1CCN(c2cc(Cl)nc(N)n2)CC1	inactive	–
O=C(Cc1ccc(F)cc1)N[C@@H]1c2ccccc2CC[C@@H]1OCc1ccccc1	inactive	–
CC(=O)N=c1scc(-c2ccccc2)n1-c1cccc(O)c1	inconclusive [inhibitor, single point]	–
Cn1c(=O)cc(Nc2ccc(Cl)cc2)[nH]c1=O	inactive	–
O=C(NC1CCCCC1)C(c1ccc(F)cc1)N(Cc1cccs1)C(=O)CN1C(=O)c2ccccc2S1(=O)=O (configuration not stated)	inactive	–
COc1ccc2nc(NN=C(C)c3ccccn3)cc(C)c2c1	inconclusive [inhibitor, full curve]	–
COc1ccc(-n2c(C)cc(C(=O)CSc3nnc(-c4ccoc4C)n3C)c2C)cc1	inconclusive [inhibitor, partial curve]	–
CC(=O)O[C@H]1[C@@H](O)[C@H](O)[C@H](Oc2c(O)c(C)c3c4c2[C@@H](C)CC[C@@H]4[C@@H](C)C[C@H]3C=C(C)C)O[C@H]1C	inconclusive [inhibitor, single point]	–
Cn1c2c(c3ccccc31)CC/C2=N\O	inconclusive [inhibitor, single point]	–

SMILES	Potency	activity change, negative = inhibition
Nc1nnc(-c2cccnc2)s1	inconclusive [inhibitor, single point]	–
CCCCC(=O)NC(Nc1ccc(C)cn1)(C(=O)OCC)C(F)(F)F (configuration not stated)	inconclusive [inhibitor, single point]	–
COc1ccc2oc3cc(C)[n+]([O-])c(-c4ccc(Br)cc4)c3c2c1	inconclusive [inhibitor, partial curve, poor fit]	–
O=C(C(=O)c1ccc(O)c(O)c1)c1ccc(O)c(O)c1	inactive	–
Cc1csc(NC(=O)CSc2nc(C(C)C)nc3c2c(=O)n(C)c(=O)n3C)n1	inconclusive [inhibitor, full curve, poor fit]	–
COc1ccc(/C=N/NC(=O)c2cccc(NC(=O)c3ccccc3Cl)c2)c(OC)c1	inconclusive [inhibitor, full curve]	–
O=c1c2[nH]c3ccc(Cl)cc3c2ncn1Cc1ccccn1	inconclusive [inhibitor, partial curve]	–
CC(OC(=O)c1ccc([N+](=O)[O-])s1)C(=O)Nc1ncc(Cl)cc1Cl (configuration not stated)	inconclusive [inhibitor, single point]	–
O=[N+]([O-])c1ccc2c(c1)nc1n2CCN(C2CCCCC2)C1	inconclusive [inhibitor, partial curve]	–
CCOc1ccc(C(=S)N2CCOCC2)cc1	inactive	–
CO[C@@]1(NC(=O)C2SC(=C(C(N)=O)C(=O)O)S2)C(=O)N2C(C(=O)O)=C(CSc3nnnn3C)CS[C@@H]21 (some centres not stated)	inactive	–
COC(=O)c1cccc(Nc2cc(C)nc(-c3ccccc3O)n2)c1	active: 0.794 µM	–
Cc1cccc(Nc2nc(N)nc(CN3CCC(C(N)=O)CC3)n2)c1C	inactive	–
COc1ccc(NC(=O)c2noc(C(C)C)c2[N+](=O)[O-])cc1	inconclusive [inhibitor, single point]	–
CCCCC(=O)Nc1ccc(C(=O)Nc2ccc(S(=O)(=O)Nc3nccc(C)n3)cc2)cc1	inactive	–
COc1ccc(C2/C=C\CN(C(=O)c3ccccc3)CC(=O)N2Cc2cccc(F)c2)cc1 (configuration not stated)	inconclusive [inhibitor, single point]	–
CN(C)CCCN1c2ccccc2CCc2ccc(Cl)cc21	inconclusive [inhibitor, partial curve]	inactive: 1.17% [at 8.37 µM]
CC(C)(CN1CCN(Cc2ccccc2)CC1)NS(=O)(=O)c1ccc(Cl)cc1	inconclusive [inhibitor, single point]	–
COc1ccc(NC(=O)CN2C(=O)NC3(CCCC3)C2=O)cc1Cl	inactive	–
COCCn1c(C)cc(C(=O)CSc2cc(C)c3ccccc3n2)c1C	inconclusive [inhibitor, single point]	–
COC(=O)N/N=C\c1cc(Br)ccc1OCc1ccccc1	active: 10 µM	–
Cc1ccc(S(=O)(=O)N2C[C@@H]3c4ccccc4N(S(=O)(=O)c4ccc(C)cc4)[C@@H]3[C@@H](C)C2CC(=O)c2ccccc2)cc1 (some centres not stated)	inconclusive [inhibitor, full curve, poor fit]	–
CC1(C)CC(Cc2nc(=S)[nH][nH]2)C(=O)O1 (configuration not stated)	inactive	–
Cc1nc2ccccc2n1-c1nc(-c2ccco2)cc(C(F)(F)F)n1	active: 3.16 µM	–

SMILES	Potency	activity change, negative = inhibition
CCOC(=O)N1CCc2c(sc(NC(=O)c3ccc(S(=O)(=O)N4CCCC4)cc3)c2C#N)C1	inconclusive [inhibitor, partial curve]	–
Cc1cccc(N2CCN(C(=O)c3cc(S(=O)(=O)N4CCOCC4)cn3C)CC2)c1C	inactive	–
COc1ccc(C(C)(C)C)cc1NC(=O)c1ccc2c(c1)SC1=NS(=O)(=O)CCN12	inactive	–
Cc1cc(Nc2cccc([N+](=O)[O-])c2)n2c(nc3ccccc32)c1C#N	active: 6.31 µM	–
COc1ccc(-c2nc(CNS(=O)(=O)c3ccc(OC)c(OC)c3)cs2)cc1	inconclusive [inhibitor, partial curve]	–
CCOC(=O)C1CCCN(C(=O)Nc2ccccc2)C1 (configuration not stated)	inactive	–
CCOC(=O)C1=C(C)N=C2SC=C(C)N2C1c1ccc(OC)cc1 (configuration not stated)	inconclusive [inhibitor, single point]	–
COc1ccc(C2CC(c3ccc(Cl)cc3)=NN2C(C)=O)cc1 (configuration not stated)	inconclusive [inhibitor, single point]	–
O=C1CN(C(=O)N[C@@H](Cc2ccccc2)C(=O)N[C@H](Cc2ccccc2)C(=O)O)c2ccccc2N1	active: 0.562 µM	–
Nc1nc2c(-c3ccc(Br)cc3)nnn2c2ccccc12	inactive	–
CCN(CC)CCNc1ccc(C)c2sc3ccc(O)cc3c(=O)c12	inconclusive [inhibitor, full curve]	–
CCOc1ccc(S(=O)(=O)N2CCOCC2)cc1NS(=O)(=O)c1ccc(OC)c([N+](=O)[O-])c1	inactive	–
O=C(Nc1c(F)cccc1F)c1cnc(N2CCN(c3ccccn3)CC2)c2ccccc12	active: 12.6 µM	–
Cn1c(SCC(=O)Nc2cc(C(C)(C)C)nn2-c2ccccc2)nc2ccccc21	inconclusive [inhibitor, partial curve, poor fit]	–
COC(=O)c1ccccc1NC(=O)NN1CCN(C)CC1	inactive	–
CC(=O)Nc1ccc2c(c1)C(=O)N(c1cccc(C)c1)C2=O	inconclusive [inhibitor, partial curve]	–
CCOc1cc2c(cc1OCC)-n1cccc1C(c1ccc(C)cc1C)NC2 (configuration not stated)	inconclusive [inhibitor, single point]	–
C/C(=N\NC(=S)NCC(C)(C)C)c1cc(F)cc(F)c1O	inactive	–
CCN(CC)S(=O)(=O)c1ccc(N2CCCCC2)c(NC(=O)/C=C/c2ccc(OC)c(OC)c2)c1	inconclusive [inhibitor, single point]	–
CNC(=S)Nc1ccc([N+](=O)[O-])cc1C	inconclusive [inhibitor, single point]	–
CCOC(=O)c1c(C)[nH]c(C(=O)N/N=C\c2ccccc2Cl)c1C	inconclusive [inhibitor, full curve]	–
CCn1ccnc1CNC(=O)c1ccc2oc(CCCc3ccccc3)nc2c1	inconclusive [inhibitor, single point]	–
Cc1ccc(-n2c([O-])nc(-[n+]3ccccc3)c2C=O)cc1	inactive	–
